From the supplement of paper PMC3334620
The full ranking holds about 33,000 sequences; the median of “E-score (-0.5 to 0.5)” is about -0.016, and the highest 2% start at about 0.32. The list shows a part of the results.

target: T1, Stp1 (UniProt B3LFK1); experiment: PBM E-score (8-mer binding enrichment) (E-score (-0.5 to 0.5)); higher = stronger / more preferred TF binding; most listed sequences are background and not binding sites; conditions: protein concentration: 200 nM; construct: GST-full length
T1 sequence: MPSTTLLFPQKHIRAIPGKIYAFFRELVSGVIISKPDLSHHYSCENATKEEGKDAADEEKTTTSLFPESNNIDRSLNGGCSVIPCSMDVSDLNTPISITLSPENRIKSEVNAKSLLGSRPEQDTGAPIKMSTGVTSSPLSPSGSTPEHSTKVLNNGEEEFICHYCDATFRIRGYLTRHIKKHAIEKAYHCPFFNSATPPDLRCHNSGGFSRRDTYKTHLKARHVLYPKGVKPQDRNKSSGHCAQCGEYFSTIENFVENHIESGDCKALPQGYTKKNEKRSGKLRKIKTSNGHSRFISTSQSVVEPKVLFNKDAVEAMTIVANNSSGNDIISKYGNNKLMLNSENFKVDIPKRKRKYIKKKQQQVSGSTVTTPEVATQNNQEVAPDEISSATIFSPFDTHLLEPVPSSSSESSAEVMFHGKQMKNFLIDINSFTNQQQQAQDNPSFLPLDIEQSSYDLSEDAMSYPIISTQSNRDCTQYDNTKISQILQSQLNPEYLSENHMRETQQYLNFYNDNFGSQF
Description: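 Universal 'all 10-mer' protein binding microarrays (Agilent AMADID 015681) probed with GST-tagged S. cerevisiae TFs (full-length or DBD) made by in vitro transcription/translation (PURExpress), about 100-200 nM. Bound TF was detected with fluorescent anti-GST. Each ungapped 8-mer (which stands for itself and its reverse complement) is scored by the PBM enrichment score (E-score), a modified Wilcoxon-Mann-Whitney statistic from -0.5 to +0.5, computed with the Universal PBM Analysis Suite. Scale: above 0.35 generally sequence-specific binding.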

| Sequence | PBM E-score |
| --- | --- |
| CGTGAAAC | 0.106 |
| ACGCAAAT | -0.00737 |
| TACAGCTA | -0.309 |
| CGACTTGC | -0.0985 |
| GACATTAA | -0.0576 |
| CCCCACGA | -0.176 |
| CATGAGGA | -0.0457 |
| TCCACGAA | 0.223 |
| GGGTTTAA | -0.06 |
| AGTCGGCC | -0.107 |
| ATATAAAC | 0.196 |
| AGACAGCG | -0.02 |
| GTCGGTAA | -0.195 |
| GTTGCGAA | 0.0118 |
| TCGGGCAA | -0.167 |
| TAGATATA | 0.175 |
| ACATTCAG | -0.126 |
| AAATAAAA | 0.174 |
| AGCCAGTA | -0.192 |
| ATGATTAC | 0.051 |
| AATACAAC | 0.188 |
| AATAACCA | 0.0512 |
| GAGGAATC | -0.132 |
| CTTACCAC | -0.171 |
| CAATAGCA | -0.267 |

| Sequence | PBM E-score |
| --- | --- |
| ACTACGCC | 0.0854 |
| ATAACATC | 0.16 |
| AGTATACG | 0.114 |
| AATTTACA | 0.0653 |
| CCCCTTAC | -0.217 |
| CGTCTCAA | 0.0114 |
| AAAGAAAA | 0.243 |
| ATTCTAAC | -0.103 |
| GTAATAGA | -0.0791 |
| GCTTACGA | -0.271 |
| AACAAGTA | 0.0306 |
| CCCTCCCA | -0.216 |
| AACCTCTG | -0.194 |
| TGCGCCAA | 0.0818 |
| CGGGGTCA | -0.114 |
| CCTGGGAC | -0.366 |
| TGGCGCCA | 0.26 |
| ACTGGGTC | -0.306 |
| ATGGTATA | 0.0796 |
| GGAAAGAA | 0.0492 |
| TATCCCCA | -0.189 |
| GAATAGTC | -0.205 |
| GACTCGGC | 0.0727 |
| AGTACGCG | 0.0629 |
| GCGTAATA | 0.186 |

| Sequence | PBM E-score |
| --- | --- |
| CTTCCGGA | -0.118 |
| GTTCAATA | 0.0887 |
| CTTTCTTA | -0.00878 |
| AAGATCCA | 0.0992 |
| GTAAACAA | 0.213 |
| CGCCATCC | 0.0995 |
| GCTATACA | -0.0217 |
| ACCATAGT | -0.0656 |
| GTGTCTTA | -0.0267 |
| ATGGGAAA | -0.112 |
| CAAAAGTC | 0.0582 |
| ATAGCTCC | -0.288 |
| CACTCCAA | -0.0445 |
| ATAGCCCG | -0.152 |
| GCAAAAGA | 0.0536 |
| ACGATTAG | 0.0216 |
| GTGTTTAA | 0.092 |
| ATACGCGG | 0.263 |
| AGGGACTG | -0.302 |
| GAAATCCA | 0.0612 |
| CTGCCGTC | 0.299 |
| CAGCTGGG | -0.265 |
| GGTTAATA | 0.224 |
| CTTCGCTC | 0.155 |
| CTGTTGCC | 0.0784 |

| Sequence | PBM E-score |
| --- | --- |
| GACTTTTA | -0.244 |
| ATAGACCG | -0.123 |
| GGGTGAAC | 0.033 |
| CTGTTCGA | -0.209 |
| CTAACGAA | 0.13 |
| ATTCCTCC | -0.157 |
| AAGTGATT | 0.0164 |
| ACGTTCAG | -0.147 |
| GCGGTACA | 0.1 |
| ATCCAGTC | -0.0342 |
| AAGCGGTC | -0.149 |
| AGCACACT | -0.0769 |
| CGTGGATA | -0.0288 |
| AACGAGTA | 0.034 |
| GCATAGCC | -0.131 |
| ATCAAACC | 0.00742 |
| AGACTACC | -0.216 |
| GATGGTAC | -0.00639 |
| ACAACCCC | -0.242 |
| CAATTGTA | 0.0616 |
| ATCAGATC | -0.0902 |
| AATACAGG | 0.0178 |
| GCTGCTAA | -0.00243 |
| CGTGCAAC | 0.138 |
| GTCTTAGA | -0.022 |

| Sequence | PBM E-score |
| --- | --- |
| ATAACGGA | 0.0775 |
| AGGCTTAT | -0.108 |
| ATAGCCTA | -0.144 |
| CCAGTCCG | -0.172 |
| CCATTATC | 0.199 |
| GGGTTACC | -0.0716 |
| AACAGATC | 0.109 |
| ACGCGCCC | 0.289 |
| GTTGGCTA | -0.0564 |
| CATCTGCC | -0.132 |
| CTCCGCAC | 0.119 |
| GCCCTCAC | -0.251 |
| TAATCAGA | 0.104 |
| CATTTCAC | -0.0457 |
| AGATTCCC | -0.18 |
| CTATAACA | 0.0642 |
| ACGATGGG | -0.235 |
| CCCCTCCA | -0.239 |
| CGCTCTCC | -0.216 |
| ACATGAAT | 0.0303 |
| CCTGGGGC | -0.253 |
| AACTGCTC | -0.0803 |
| GGCGCGCC | 0.423 |
| ACTACAAT | 0.156 |
| AGAGATCC | -0.184 |

| Sequence | PBM E-score |
| --- | --- |
| CCACTTAC | 0.0552 |
| CTAGCCGC | 0.395 |
| AGATCACA | 0.109 |
| AGGCAGAA | 0.0807 |
| CCCGAAAG | -0.132 |
| CATGTGGC | 0.32 |
| AAGGCTAT | 0.0747 |
| ATTGCAAG | 0.0808 |
| GTTGCTAA | 0.0487 |
| CGATCTAC | -0.0726 |
| CCCTGTGA | -0.138 |
| CCTGTTAC | -0.152 |
| CGAACAGC | -0.164 |
| CTGTGAAG | -0.0819 |
| GGTTCATA | -0.0452 |
| CCCCCCGG | -0.36 |
| AATCAAAC | 0.127 |
| GGAAGTTA | 0.0324 |
| ATTTCCCA | 0.0347 |
| ATAACACG | 0.181 |
| AGGCATCC | -0.0829 |
| ACGATCCC | -0.211 |
| CCAAGCGG | 0.105 |
| GTGGCTAA | 0.244 |
| GGTACTAA | 0.0259 |

| Sequence | PBM E-score |
| --- | --- |
| ACAATCGT | -0.176 |
| AAAGGGGG | -0.423 |
| TTGACAAA | 0.229 |
| ACCTGATA | 0.0697 |
| CCCGTTCA | -0.132 |
| CTATATAC | 0.275 |
| CCAACAGG | -0.173 |
| CGGAATTA | 0.0149 |
| CGTCCATA | 0.158 |
| GCGGTATA | -0.00181 |
| GGCCACCA | -0.0479 |
| ACACGAGT | 0.0728 |
| AGAGCAAG | 0.0492 |
| CGCGAGGC | 0.421 |
| AATAGATC | 0.0313 |
| ACTCCGGA | 0.00743 |
| AACGGATA | 0.208 |
| CCAGTCAA | -0.122 |
| AACCTTAT | -0.0729 |
| ACGGGCAC | 0.205 |
| TCTAAAGA | 0.0839 |
| CCTTAGCC | 0.268 |
